In article PMC2173995 (The Journal of Cell Biology, 2002):

Biological target: the molecule itself
Test: negative-stain electron microscopy with single-particle image averaging

B1: Mouse myosin V HMM heavy chain (residues 1-1,091) (domain or fragment)
chain: not shown
stoichiometry N: 2
